Experimental data: paper PMC4336329 (PLoS ONE, 2015)
Out of some 310,000 compounds screened, about 2,200 (0.71%) showed an effect of 50% or more. Effects have a minus sign here. This is one part of the list.

Target: human ether-à-go-go-related gene (hERG) potassium channel (human, UniProt Q12809)
Experiment: primary screen, population patch clamp on CHO cells stably expressing hERG

human ether-à-go-go-related gene (hERG) potassium channel, sequence (Q12809 whole entry, looked up): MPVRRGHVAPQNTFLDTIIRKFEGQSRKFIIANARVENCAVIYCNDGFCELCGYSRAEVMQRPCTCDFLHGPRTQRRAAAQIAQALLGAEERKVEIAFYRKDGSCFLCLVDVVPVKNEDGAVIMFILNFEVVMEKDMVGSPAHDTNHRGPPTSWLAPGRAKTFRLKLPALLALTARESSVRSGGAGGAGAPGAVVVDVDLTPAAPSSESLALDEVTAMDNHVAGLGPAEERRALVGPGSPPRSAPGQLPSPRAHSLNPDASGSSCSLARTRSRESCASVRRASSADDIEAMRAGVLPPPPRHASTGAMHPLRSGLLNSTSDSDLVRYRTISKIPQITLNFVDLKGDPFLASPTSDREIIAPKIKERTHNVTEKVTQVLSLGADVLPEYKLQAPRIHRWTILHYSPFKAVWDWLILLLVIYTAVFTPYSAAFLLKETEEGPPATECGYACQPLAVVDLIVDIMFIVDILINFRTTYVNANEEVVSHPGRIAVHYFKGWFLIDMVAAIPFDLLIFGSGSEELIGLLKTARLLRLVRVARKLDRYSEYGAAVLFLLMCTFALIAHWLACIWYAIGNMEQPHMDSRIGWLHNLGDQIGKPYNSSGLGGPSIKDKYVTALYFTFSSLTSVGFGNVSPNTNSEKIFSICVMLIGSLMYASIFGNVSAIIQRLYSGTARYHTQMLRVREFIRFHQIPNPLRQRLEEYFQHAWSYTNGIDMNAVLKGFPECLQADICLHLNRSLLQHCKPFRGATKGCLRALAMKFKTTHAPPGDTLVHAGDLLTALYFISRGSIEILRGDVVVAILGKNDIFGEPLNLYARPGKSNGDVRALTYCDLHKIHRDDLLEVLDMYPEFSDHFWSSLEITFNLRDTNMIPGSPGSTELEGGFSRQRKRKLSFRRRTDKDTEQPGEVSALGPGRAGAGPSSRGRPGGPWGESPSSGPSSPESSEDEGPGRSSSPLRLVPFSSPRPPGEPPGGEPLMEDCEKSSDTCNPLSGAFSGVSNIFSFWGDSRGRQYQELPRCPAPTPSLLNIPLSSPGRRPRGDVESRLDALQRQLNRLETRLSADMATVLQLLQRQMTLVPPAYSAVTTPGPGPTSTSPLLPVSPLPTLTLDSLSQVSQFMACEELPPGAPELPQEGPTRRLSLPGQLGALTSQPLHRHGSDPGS

| SMILES | hERG current change (%, negative = inhibition) at 1uM |
| --- | --- |
| Cc1ccc(S(=O)(=O)N(Cc2ccc(C(F)(F)F)cc2)C(=O)N2CCN(C)CC2)cc1 | 13% |
| O=C(CNC(=O)C1CCCCC1)Nc1ccc(F)c(Cl)c1 | -0.579% |
| COc1ccc(C(=O)NCC(c2ccco2)N2CCc3ccccc32)c(OC)c1 (stereo not drawn) | 3.02% |
| C=CCN=C1CC(C)(C)C(C(=O)OC)C(O)=C1C(=O)CCC (stereo not drawn) | 11.6% |
| c1coc(-c2nc3c([nH]2)CCc2nonc2-3)c1 | 15.2% |
| CCc1cc2cccc(C)c2nc1SCC(=O)NNC(=O)c1ccco1 | -0.11% |
| CCCCc1nnc(NC(=O)C=C(C)C)s1 | 11.7% |
| O=C(CCN1C(=O)COc2ccccc21)N1CCC2(CC1)OCCO2 | 3.41% |
| CNCC(O)COc1cccc(OC)c1 (stereo not drawn) | 6.57% |
| COC(=O)C(=Cc1ccccc1[N+](=O)[O-])C(=O)OC | 14.2% |
| NC(=O)C1(NC(=O)[C@@H]2CC3(CC(c4cccc(NC(=O)[C@@H]5CCC(=O)N5)c4)=NO3)CN2C(=O)c2ccccc2)CC1 (stereo partly drawn) | 9.88% |
| Cl.O=S(=O)(NCC(c1ccco1)N1CCCCC1)c1cccc(C(F)(F)F)c1 (stereo not drawn) | 7.94% |
| CCOC(=O)C(C(=O)NCc1ccc(C)cc1)c1ncc(C(F)(F)F)cc1Cl (stereo not drawn) | 8.93% |
| COc1cccc(-c2cccc(NC(=O)C3CCN(Cc4nccs4)CC3)c2)c1 | 3.89% |
| Fc1ccccc1N1CC(c2ccccc2)C(c2cccs2)=N1 (stereo not drawn) | 7.54% |
| Cc1cc(C)c(S(=O)(=O)NCc2cn3c(C)csc3n2)c(C)c1 | 18.5% |
| CCN1CCCC1CNS(=O)(=O)c1c(C)cc(C)cc1C.Cl (stereo not drawn) | 2.79% |
| COc1ccc(NS(=O)(=O)c2ccc(Oc3ncccn3)cc2)cc1 | 11% |
| COc1ccccc1NS(=O)(=O)c1cccc(C(=O)N(C)Cc2cccs2)c1 | 1.89% |
| O=C(c1cc(-c2ccncc2)nc2ccc(Br)cc12)N1CCN(c2ccccn2)CC1 | -9.18% |
| COc1ccccc1N1CCN(C(=O)C(=O)c2cn(CC(=O)N3CCCC3)c3ccccc23)CC1 | 9.68% |
| CC(=O)NS(=O)(=O)c1ccc(NC(=S)NC(=O)c2ccco2)cc1 | 5.06% |
| O=C1N/C(=C/c2cccn2-c2ccccc2)C(=O)N1Cc1ccccc1F | 8.52% |
| CCn1cc(C(=O)OCC(=O)Nc2cccc(C)c2)c(=O)c2ccc(C)nc21 | 12.7% |
